Assay results taken from the RNAGym collection of RNA variant scans (doi:10.1073/pnas.2313332121).
This sample is rich in variants without activity.

B1: TPR 5TU (parent)
chain: GGAUCUUCUCGAUCUAACAAAAAAGACAAAUCUGCCACAAAGCUUGAGAGCAUCUUCGGAUGCAGAGGCGGCAGCCUUCGGUGGCGCGAUAGCGCCAACGUUCUCAACUAUGACACGCAAAACGCGUGCUCCGUUGAAUGGAGUUUAUCAUG

Variants of: B1
Experiment: polymerase ribozyme fitness, log enrichment relative to wild type (log ratio); higher = more active; in vitro selection for triplet polymerase activity
Summary of the method: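 Both subunits of a heterodimeric triplet polymerase ribozyme were given their own mutant library, built by PCR and transcribed. Each library was annealed with a biotinylated primer, the partner subunit and triplets, incubated frozen at −7 °C, and its extended constructs gel-excised, captured on streptavidin beads and amplified by RT-PCR, all in one round done in triplicate. Fitness is the logarithm of genotype enrichment relative to wild-type enrichment, with replicates averaged by inverse-variance weighting. That logarithm is base 2, and Illumina-sequenced genotypes needed ≥10 input reads and ≥1 read per output.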

Variant	polymerase ribozyme fitness (log ratio)
A47G G68A U78C G92A U101C G126A	≤ -4.2
A47G G74A U101G A121C U145C	≤ -4.2
A47G G74C A122C U127A	≤ -4.2
A47G G80A	-0.0419
A47G G83C U134A G140U	-4.17
A47G G84A G128C	-3.37
A47G G84U A106G	-2.24
A47G G84U G140U	≤ -4.2
A47G G88C A89G A98U G143U	≤ -4.2
A47G G92C C114U	-2.53
A47G G133C C149G	-3.65
A47G G140A	-3.51
A47G U53A A73U G84C C99A A106U A150C	≤ -4.2
A47G U53A C57A G84U C99U U134G G141C	≤ -4.2
A47G U56A G62A U78A C87A C99U U134C U146G U148G	≤ -4.2
A47G U61A G84A C105A C108U U151A	≤ -4.2
A47G U61G A142G	-2.82
A47G U61G G92C U102G U104G U111G	≤ -4.2
A47G U90A C95A A98G A138U A147C	≤ -4.2
A47G U102G	≤ -4.2
A47G U102G C114G C131U	≤ -4.2

Variant	polymerase ribozyme fitness (log ratio)
A47U A49C C51U C93A	≤ -4.2
A47U A49C G50C C57A A73G C87A G124U U146C	≤ -4.2
A47U A49G U53G C54G C87U	≤ -4.2
A47U A52C G68C A91G U111A	≤ -4.2
A47U A52G A119C	-1.05
A47U A60C C87A C114U	≤ -4.2
A47U A60C C103G A107G	≤ -4.2
A47U A60C C125U	-2.64
A47U A89U A110C	≤ -4.2
A47U A91U	≤ -4.2
A47U A97C	0.501
A47U C51A G58A G80A G83A C103U	≤ -4.2
A47U C51U A52C U53G U61A A64U C76U G83U U146C	≤ -4.2
A47U C51U C87U A113U G152A	-3.99
A47U C54A C75G G140A	≤ -4.2
A47U C54G G71U C116A A138C	≤ -4.2
A47U C54U C69A	≤ -4.2
A47U C54U C114U	-2.94
A47U C54U G59U C85A U139C	≤ -4.2
A47U C57U U61A U101A A107U C125A U145C	≤ -4.2
A47U C72G C76G G83U U102C G126A C132G A137U	≤ -4.2

Variant	polymerase ribozyme fitness (log ratio)
A47U C76G G80U A91G A107G C116A	≤ -4.2
A47U C76U	-0.942
A47U C76U A119C U139G	-2.8
A47U C79A C87U C125G	≤ -4.2
A47U C85U A150C	≤ -4.2
A47U C87U A91U C95U C114G A120C	≤ -4.2
A47U C93G	-3.23
A47U C95U	-0.679
A47U C95U A115G	-2.68
A47U C96A A97G A122C	-1.28
A47U C96A G126A C129A A137U	≤ -4.2
A47U C103G	≤ -4.2
A47U C108G	≤ -4.2
A47U G48A C57U G59C G94C G128A	≤ -4.2
A47U G50A C51A C85G C123U G133C U139A	≤ -4.2
A47U G50C	-3.22
A47U G50C G126A	≤ -4.2
A47U G50U C75U A89C G100U A106U	≤ -4.2
A47U G58C U61G G81A	-3.65
A47U G59A C76A C129U	≤ -4.2
A47U G59C C75A A119G U134G	≤ -4.2

Variant	polymerase ribozyme fitness (log ratio)
A47U G59C C85A G92U C123U G140U	≤ -4.2
A47U G65C C96A A138G G152C	≤ -4.2
A47U G68A G71C C79G	≤ -4.2
A47U G68U G74A C87G C99U	≤ -4.2
A47U G74U A97G U111G U148A	≤ -4.2
A47U G80A A91C	≤ -4.2
A47U G80C G94C A110G	≤ -4.2
A47U G81A C125G A150C	≤ -4.2
A47U G83U A122U	-0.574
A47U G88A C96U U144A	≤ -4.2
A47U G124A	0.304
A47U U55G	-1.03
A47U U55G G94A	-0.633
A47U U56A A122G U127C	-2.55
A47U U56A G94A C118U A121U	-0.95
A47U U77C	-4.09
G48A	-0.217
G48A A49C C57A U82G C93U C132U G133U A137U	≤ -4.2
G48A A49C C87U C93A A106U G133A	≤ -4.2
G48A A49C G80A C85U	≤ -4.2
G48A A49G G80U C103G G124C U145C	≤ -4.2
